Laboratory results published in PubChem BioAssay AID651820 (National Center for Advancing Translational Sciences (NCATS), 2012).
Hit rate of the full screen: of about 340,000 compounds, about 12,000 (3.5%) were called active. Inconclusive means that the source gave no clear call. Such entries were picked first, then a sample of the others. The call rests on the fitted dose curve; in most records, active means well fitted inhibition curve with a large enough effect; inconclusive means small, poorly fitted or top-dose-only effect, or another doubt; inactive means no such curve, though single readings can be large or run the other way. Potencies of inconclusive entries are left out as doubtful fits.
On the % scale 0 is the no-effect control and ±100 the full control effect; potency means the concentration at half of the fitted maximal effect; tags describe the fitted curve by direction and shape.

Assay: qHTS Assay for Inhibitors of Hepatitis C Virus (HCV)
Settings: Huh7.5.1 HCVcc-Cre (HCVcc is cell-culture hepatitis C virus) infection, luciferase reporter, 44 h; activity change, negative = inhibition: at 41.8 µM (top of the series) unless noted
Method in brief: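 A cell-based infection assay in which seeded cells (1,000 per well) receive test compound after 4 h, are inoculated with HCVcc-Cre at approximately 0.5 moi, and are incubated 44 h before luminescence detection.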
In the case of `C=CCSc1nc2nc(C)cc(C)n2n1`, the Potency was inconclusive [inhibitor, single point].
In the case of `COc1ccc(/C=N/NC(=O)c2cc(-c3ccccc3)nc3ccccc23)c(C(=O)O)c1OC`, the “activity change, negative = inhibition” value was inactive: -5.44%.
In the case of `O=C(COC(=O)c1ccc(Cl)nc1)Nc1cc(S(=O)(=O)N2CCOCC2)ccc1Cl`, the “activity change, negative = inhibition” value was inactive: -9.79%.
For `CCOc1ccccc1NC(=O)C(NCC1CCCCC1)c1ccccc1` (stereo not drawn), the Potency was inconclusive [inhibitor, single point].
With `Cc1cc(C)nc(SCNC(=O)c2ccc(F)cc2)n1` the “activity change, negative = inhibition” value was inactive: -1.75%.
In the case of `CC(C)(C)c1ccc(-c2noc(-c3ccc4c(c3)CCO4)n2)cc1`, the Potency was inconclusive [inhibitor, partial curve].
For `Cc1cc(/C=N/NC(=O)C(O)(c2ccccc2)c2ccccc2)c(C)n1-c1ccccc1`, the “activity change, negative = inhibition” value was inactive: -0.188%.
With `Cc1cnc(C(=O)OCC(=O)Nc2ccccc2-c2ccccc2)cn1` the “activity change, negative = inhibition” value was inactive: 10.5%.
With `C/C(=N\NC(=O)c1c[nH]c2ccccc12)c1ccco1` the “activity change, negative = inhibition” value was inactive: -5.17%.
For `O=C(NCc1ccc2c(c1)OCO2)NC12CC3CC(CC(C3)C1)C2`, the “activity change, negative = inhibition” value was inactive: -30.7%.
For `CNS(=O)(=O)c1cccc(C(=O)NCC2(N3CCCCC3)CCCCC2)c1`, the “activity change, negative = inhibition” value was inactive: 13.1%.
With `CCOc1ccc(C2=NNC(c3cccs3)=Nc3ccc(OC)cc32)cc1OCC` the Potency was inconclusive [inhibitor, single point].
For `O=C(c1cccc(S(=O)(=O)N2CCc3ccccc3C2)c1)N1CCN(c2ccccc2)CC1`, the Potency was inconclusive [inhibitor, single point].
For `Cc1cccc2sc(NC(=O)c3cccc(S(=O)(=O)N4CCc5ccccc54)c3)nc12`, the Potency was inconclusive [inhibitor, full curve].
With `CCN(CC)S(=O)(=O)c1ccc2[nH]cc(C(=O)NCCCN3CCCCC3C)c(=O)c2c1` (stereo not drawn) the “activity change, negative = inhibition” value was inactive: -3.78%.
For `COc1cccc2cc(-c3nnc(SCC(=O)Nc4nc(C)cs4)n3C)oc12`, the Potency was active: 12.6 µM.
With `O=c1[nH]cnc2c1c(-c1ccccc1)cn2-c1ccccc1` the “activity change, negative = inhibition” value was inactive: -1.35%.
With `COc1ccc2nc(SCC(=O)Nc3c(C)cccc3C)[nH]c2c1` the “activity change, negative = inhibition” value was inactive: -1.66%.
In the case of `CCOC(=O)c1cnc(SCC(=O)Nc2nc(C)c(C)s2)nc1N`, the Potency was inconclusive [inhibitor, partial curve, poor fit].
With `COc1cccc2c(=O)c3c(cnn3C)n(C)c12` the Potency was inconclusive [inhibitor, single point].
In the case of `Cc1nc(Cl)sc1C(=O)Nc1ccc2ccccc2c1`, the Potency was inconclusive [inhibitor, single point].
For `CCOC(=O)COc1ccc(S(=O)(=O)N2CCN(C(=O)OCC)CC2)cc1`, the “activity change, negative = inhibition” value was inactive: 11.6%.
With `Cn1c(=O)c2c(nc(N/N=C/c3cccs3)n2Cc2ccc(Br)cc2)n(C)c1=O` the Potency was inconclusive [inhibitor, partial curve].
In the case of `COc1ccc(C(=O)NC2CCCc3c2cnn3-c2ccc(C)c(C)c2)c(OC)c1OC` (stereo not drawn), the Potency was inconclusive [inhibitor, partial curve].
In the case of `CCc1ccccc1NC(=S)NC1CC2CCCC(C1)N2Cc1cccs1` (stereo not drawn), the Potency was inconclusive [inhibitor, single point].
In the case of `CSc1nsc(/C=C/Nc2cccc(Cl)c2)c1C#N`, the Potency was inconclusive [inhibitor, partial curve].
For `COc1ccc(C(=O)NC(=S)NCc2cccnc2)cc1Br`, the Potency was inconclusive [inhibitor, single point].
For `C#CCNC(=O)C1=C[C@H](c2csc3ccccc23)C[C@H](OCc2ccc(CO)cc2)O1`, the Potency was inconclusive [inhibitor, partial curve, poor fit].
With `CCCOc1ccc(C2C(C(=O)c3ccc(C)o3)=C(O)C(=O)N2Cc2ccco2)cc1` (stereo not drawn) the Potency was inconclusive [inhibitor, single point].
In the case of `C[n+]1ccccc1/C=C/c1ccc([N+](=O)[O-])cc1`, the Potency was active: 10 µM.
In the case of `Cc1ccc(C)c(S(=O)(=O)Nc2cc(SCC(=O)O)c(O)c3ccccc23)c1`, the Potency was inconclusive [inhibitor, single point].
For `COc1ccc(-c2[nH]c(-c3ccc(SC)cc3)nc2SCC(=O)Nc2nccs2)cc1`, the Potency was inconclusive [inhibitor, partial curve].
For `CCOC(=O)c1cc(-c2ccccc2)n(CC2CC(c3ccc(OC)cc3)=NO2)n1` (stereo not drawn), the Potency was inconclusive [inhibitor, single point].
For `O=S(=O)(c1ccccc1)c1nc(-c2cccc(Cl)c2)oc1N1CCOCC1`, the Potency was inconclusive [inhibitor, partial curve].
In the case of `O=C(CNC(=O)c1cccc(F)c1)N/N=C/c1cc(Br)ccc1OCc1ccccc1`, the Potency was inconclusive [inhibitor, single point].
For `CCc1ccccc1NC(=S)NCCSc1ccc(Cl)cc1`, the “activity change, negative = inhibition” value was inactive: -11.6%.
In the case of `Cc1ccc(N(Cc2cc3cccc(C)c3[nH]c2=O)S(=O)(=O)c2ccccc2)c(C)c1`, the Potency was inconclusive [inhibitor, single point].
For `CCOC(=O)C1(Cc2ccccc2)CCN(Cc2cnc(N3CCOCC3)s2)CC1`, the Potency was inconclusive [inhibitor, single point].
In the case of `CC1CCC2[C@@H](C)C(=O)OC3O[C@]4(C)CCC1C32OO4` (stereo partly drawn), the “activity change, negative = inhibition” value was inactive: 21.5%.
In the case of `CN(C)c1ccc(C(=O)N2CCN(c3cc(C(F)(F)F)nc4ccccc34)CC2)cc1`, the Potency was inconclusive [inhibitor, single point].
In the case of `O=C(c1ccc(COc2ccc(Cl)cc2)cc1)N1CCCCC1`, the Potency was inconclusive [inhibitor, single point].
With `COc1ccc(/C=N/NC(=O)CCn2c3ccccc3c3ccccc32)cc1O` the Potency was active: 6.31 µM.
For `Cc1ccc2nc3c(cc(C(=O)NCc4ccco4)c(=N)n3Cc3ccco3)c(=O)n2c1`, the Potency was active: 4.47 µM.
In the case of `O=C(CC(=O)N/N=C/c1c(F)cccc1Cl)NCCc1ccccc1`, the “activity change, negative = inhibition” value was inactive: 0.373%.
With `Cc1cc(NC(=O)CN2C(=O)NC(CC(C)C)C2=O)ccc1Br` (stereo not drawn) the Potency was inconclusive [inhibitor, single point].
With `Cc1ccc(C(=O)NCc2cccnc2)cc1S(=O)(=O)N1CCCCCC1` the Potency was inconclusive [inhibitor, single point].
In the case of `Cc1ccccc1-c1cc(C(=O)NCc2ccc(OC(F)(F)F)cc2)n(CC2CC(c3cccnc3)=NO2)n1` (stereo not drawn), the Potency was inconclusive [inhibitor, single point].
With `O=C(c1nc(SCc2ccc([N+](=O)[O-])cc2)n2ccccc12)C(F)(F)F` the Potency was inconclusive [inhibitor, partial curve, poor fit].
With `CC(=O)N1CCN2C(=O)C1CCCC(=O)c1cc(C3CCCCC3)ccc12` (stereo not drawn) the “activity change, negative = inhibition” value was inactive: 8.07%.
For `CCCCCCCCNC(=O)/C(C#N)=C/c1ccccc1[N+](=O)[O-]`, the “activity change, negative = inhibition” value was inactive: -4.66%.
For `CCn1c(=O)c(C(=O)NCCc2ccc(OC)c(OC)c2)c(O)c2ccccc21`, the Potency was inconclusive [inhibitor, single point].
For `Cc1ccc(C2SCC(C(=O)O)N2C(=O)c2ccc(F)cc2)cc1` (stereo not drawn), the “activity change, negative = inhibition” value was inactive: 8.61%.
With `COc1cc(CNCc2ccco2)ccc1OCc1ccccc1` the Potency was active: 11.2 µM.
With `Cc1ccc(Cn2c(C(CO)Nc3nc(-c4ccc(F)cc4)cs3)nc3ccccc32)cc1` (stereo not drawn) the Potency was inconclusive [inhibitor, single point].
In the case of `O=S(=O)(Nc1ccc(N2CCCCC2)cc1)c1ccccc1F`, the “activity change, negative = inhibition” value was inactive: -27.3%.
In the case of `COc1ccc(N2CCN(CCCNS(=O)(=O)c3c(C)noc3/C=C/N(C)C)CC2)cc1`, the Potency was active: 7.94 µM.
With `CC(C)c1nc(SCC(=O)c2ccc(F)cc2)c2ccccc2n1` the Potency was inconclusive [inhibitor, single point].
For `N#C/C(=C\c1ccco1)c1nc2ccccc2s1`, the Potency was inconclusive [inhibitor, partial curve].
For `CCOC(=O)C1=C(c2ccccc2)NC(=S)NC1c1ccc(Cl)cc1` (stereo not drawn), the Potency was active: 11.2 µM.
In the case of `NNC(=O)c1ccc(-c2ccccc2F)cc1`, the “activity change, negative = inhibition” value was inactive: 1.92%.
For `CCCn1c(CC)nc([N+](=O)[O-])c1S(=O)(=O)c1ccccc1`, the Potency was active: 12.6 µM.
In the case of `Cn1c(CNC(=O)CNC(=O)c2ccc(C(C)(C)C)cc2)cc(=O)n(C)c1=O`, the “activity change, negative = inhibition” value was inactive: -0.753%.
With `COc1ccc(C(=O)Nc2c(Cl)cc(Cl)cc2C(=O)N2CCOCC2)cc1` the “activity change, negative = inhibition” value was inactive: 3.56%.
In the case of `CN(CC(=O)Nc1cc(S(=O)(=O)N2CCCCCC2)ccc1Cl)Cc1ccc2c(c1)OCO2`, the Potency was inconclusive [inhibitor, single point].
In the case of `CC1=C(C(=O)Nc2ccc(C)cc2C)C(c2cccc([N+](=O)[O-])c2)n2nc(C(=O)OC(C)C)nc2N1` (stereo not drawn), the Potency was inconclusive [inhibitor, single point].
In the case of `CCOC(=O)C1=C(C)N(C)C(=O)NC1c1c(C)nn(-c2ccc(C)cc2)c1Cl` (stereo not drawn), the Potency was inconclusive [inhibitor, single point].
For `C=CCSc1nc2sc3c(c2c(=O)[nH]1)CC(C)(C)OC3`, the “activity change, negative = inhibition” value was inactive: -8.51%.
For `Cc1ccc(NC(=O)N(Cc2cccnc2)Cc2ccco2)cc1C`, the “activity change, negative = inhibition” value was inactive: 17.8%.
In the case of `CCOC(=O)c1ccc(Nc2nnc(C)c3ccccc23)cc1`, the “activity change, negative = inhibition” value was inactive: -12.9%.
In the case of `O=C(c1ccc(S(=O)(=O)c2cccc(Cl)c2)c([N+](=O)[O-])c1)N1CCN(c2ccccn2)CC1`, the Potency was inconclusive [inhibitor, single point].
In the case of `COCCOc1cc(NC(=O)c2ccccc2)c(Cl)cc1Cl`, the Potency was inconclusive [inhibitor, single point].
In the case of `O=c1/c(=C/c2ccc(O)cc2)sc2n1CCCN=2`, the “activity change, negative = inhibition” value was inactive: 5.43%.
With `CCOC(=O)C1=C(C)Nc2nc(C)nn2C1c1ccc(OCC)c(OC)c1` (stereo not drawn) the “activity change, negative = inhibition” value was inactive: 11.9%.
